Experimental data taken from PubChem BioAssay AID886 (National Center for Advancing Translational Sciences (NCATS), 2007).
Several values for one entry are separate records, joined by “and”; a condition that tells them apart may be missing. Equal values may be shown once. Out of some 73,000 compounds screened, about 2,500 (3.4%) were called active. The inconclusive results got no clear call from the source; some entries with a clear call stand among them for comparison. The call rests on the fitted dose curve; in most records, active means well fitted inhibition curve with a large enough effect; inconclusive means small, poorly fitted or top-dose-only effect; inactive means no such curve, though single readings can be large or run the other way. Potencies of inconclusive entries are doubtful fits and often do not repeat.

The compounds below were run against 3-hydroxyacyl-CoA dehydrogenase type-2 (Homo sapiens) (UniProt Q99714) (assay: qHTS Assay for Inhibitors of HADH2 (Hydroxyacyl-Coenzyme A Dehydrogenase, Type II)). Conditions: recombinant HADH2, NADH fluorescence, beta-hydroxybutyryl-CoA; activity change, negative = inhibition: at 57.1 µM (top of the series).
Procedure, shortened: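 20 nM HADH2 + cpd, 15 min RT; add 1 mM NAD+/90 uM beta-hydroxybutyryl-CoA; kinetic fluorescence 360/450 nm, 4 min. Tris-HCl pH 9.0, 0.01% Tween-20.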
Further: nearly all actives have a fitted effect of over 60% in size.
On the % scale 0 is the no-effect control and ±100 the full control effect; potency means the concentration at half of the fitted maximal effect; tags describe the fitted curve by direction and shape.

UniProt Q99714, sequence (Q99714 whole entry, looked up): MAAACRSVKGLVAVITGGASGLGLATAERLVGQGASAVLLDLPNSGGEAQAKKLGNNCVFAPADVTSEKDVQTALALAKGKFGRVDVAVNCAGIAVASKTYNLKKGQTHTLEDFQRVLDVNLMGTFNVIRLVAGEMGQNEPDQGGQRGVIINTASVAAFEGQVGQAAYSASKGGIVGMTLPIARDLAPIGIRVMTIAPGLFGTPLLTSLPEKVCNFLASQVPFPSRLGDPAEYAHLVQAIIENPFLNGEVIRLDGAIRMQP
UniProt Q99714, sequence (Q99714 whole entry, looked up): as above

Structure (SMILES) | Potency | activity change, negative = inhibition
CC(=NCc1ccco1)c1c(C)[nH]n(-c2nc3ccccc3s2)c1=O | inconclusive: 31.6 µM [inhibitor, single point] | 
O=C(O)Cc1cc(I)c(Oc2ccc(O)c(I)c2)c(I)c1 | inconclusive: 10 µM [inhibitor, partial curve] | 
Cc1cc(/C=N/n2cnnc2)c(C)n1-c1cc(Cl)ccc1Cl | inconclusive: 39.8 µM [inhibitor, single point] | 
CCOc1ccc(C2C=C(c3ccc(C)cc3)Nc3nnnn32)cc1 (stereo not given) | inconclusive: 31.6 µM [inhibitor, single point] | 
Cc1ccc2nc(-c3ccc(NC(=O)CN4CCN(C(=O)c5ccco5)CC4)cc3)sc2c1 | active: 3.98 µM | 
COc1ccc(-n2nc3ccc(NS(C)(=O)=O)cc3n2)cc1Cl | inconclusive: 31.6 µM [inhibitor, single point] | 
Cn1c(=O)c(-c2cc(F)cc(F)c2)nc2cnc(Nc3ccccc3)nc21 |  | inactive: 8.16%
COc1ccc(NC(=O)N2CCCC(c3nc(-c4ccc(C(C)C)cc4)no3)C2)cc1 (stereo not given) |  | inactive: 10.1%
Cc1cc(C)c(C)c(S(=O)(=O)Nc2ccccc2C(=O)O)c1C | inconclusive: 25.1 µM [inhibitor, partial curve] | 
COC(=O)C1=CNC=C(C(=O)OC)C1c1ccccc1Cl | active: 25.1 µM | 
Cc1c(Cl)cccc1NC(=O)CC1SCCNC1=O (stereo not given) | inconclusive: 3.98 µM [inhibitor, single point] | 
CC(=O)C1=C(O)C(=O)N(Cc2ccco2)C1c1ccc(F)cc1 (stereo not given) | inconclusive: 39.8 µM [inhibitor, single point] | 
Cc1[nH]nc(N=CC2=C(O)CC(C)(C)CC2=O)c1-c1ccc(Cl)cc1 | inconclusive: 39.8 µM [inhibitor, single point] | 
Cn1c(SCC(=O)Nc2ccc(N3CCOCC3)cc2)nnc1-c1ccccc1 | inconclusive: 39.8 µM [inhibitor, single point] | 
CC(NC(=O)COc1cccc(Br)c1)C(=O)O (stereo not given) | inconclusive: 20 µM [inhibitor, single point] | 
COc1ccc(Br)cc1CNc1ccc(O)cc1 | active: 25.1 µM | 
Cc1cccc(CNc2cc(-c3ccccc3CN(C)C)ncn2)c1 |  | inactive: 8.65%
COCc1cc(C)n(CC(=O)NC(C)c2ccccc2)c(=O)c1C#N (stereo not given) | inconclusive: 25.1 µM [inhibitor, single point] | 
O=C(CCSc1nnc(-c2ccncc2)o1)Nc1ccc(F)cc1 |  | inactive: 10.9%
c1ccc2c(c1)NC1(CCCC1)n1c-2nc2ccccc21 | inconclusive: 31.6 µM [inhibitor, single point] | 
O=C(Nc1ccon1)c1csc2c1CCCC2 | inconclusive: 39.8 µM [inhibitor, single point] | 
O=C(Nc1ccc(C(=O)N2CCOCC2)cc1)Nc1cccc(Cl)c1 |  | inactive: 1.78%
CCOC(=O)N1CCN(C(=O)c2cccc(-n3c(=S)[nH]c4cc(Cl)ccc4c3=O)c2)CC1 | inconclusive: 25.1 µM [inhibitor, single point] | 
CCN1C(=O)CC(C(=O)O)SC1=Nc1ccc(OC)cc1 (stereo not given) |  | inactive: 7.66%
COC(=O)c1sc2ccccc2c1N | active: 25.1 µM | 

Structure (SMILES) | Potency | activity change, negative = inhibition
CN(C)C=Nc1ncc2c3ccccc3n(Cc3ccccc3)c2c1C#N | active: 31.6 µM | 
CCSC1(SCC)N=C(N)C2(C#N)C(c3ccc(OC)c(OC)c3OC)C12C#N (stereo not given) | inconclusive: 12.6 µM [inhibitor, partial curve] | 
O=C(O)c1cc(S(=O)(=O)NCc2ccco2)c(Cl)cc1Cl | inconclusive: 31.6 µM [inhibitor, partial curve] | 
COC(=O)COc1cc(C)cc2oc(=O)c(CC(=O)OC)c(C)c12 | inconclusive: 39.8 µM [inhibitor, single point] | 
COc1ccc(C2C3=C(CCCC3=O)Nc3nc4ccccc4n32)c(OC)c1OC (stereo not given) | active: 25.1 µM | 
COCCCNC(=O)CSc1nc2ccc(N3CCOCC3)cc2c(=O)n1CCc1ccccc1 | inconclusive: 31.6 µM [inhibitor, single point] | 
CCCc1noc(-c2ccc(-c3ccccc3)cc2)n1 |  | inactive: 17.6%
CC(=O)Oc1ccc(N2C(=O)CC(N3CCOCC3)C2=O)cc1 (stereo not given) | inconclusive: 3.16 µM [inhibitor, partial curve] | 
CC1(C)CC(=O)C(Sc2nnc(-c3ccc(NS(C)(=O)=O)cc3)n2Cc2ccco2)C(=O)C1 | inconclusive: 3.16 µM [inhibitor, single point] | 
Cc1c(C#N)c2ncn(Cc3ccccc3)c(=O)c2n1-c1ccccc1 |  | inactive: 5.56%
Cc1noc(C)c1COC(=O)CCN1c2ccccc2Sc2ccccc21 |  | inactive: -5.62%
CCN1C(=O)c2ccccc2S(=O)c2ccc(C(=O)NCc3ccccn3)cc21 (stereo not given) |  | inactive: -0.694%
COCC(=O)NCc1ccc2c(c1)OCO2 | inconclusive: 39.8 µM [inhibitor, single point] | 
C[C@@]12C[C@H](O)[C@@H]3[C@H](CCC4=CC(=O)CC[C@]43C)[C@H]1CC[C@@H]2c1csc(N)n1 |  | inactive: 13% [at 11.4 µM]
O=C(Nc1nccs1)c1ccc(COc2ccc(Cl)cc2)o1 | inconclusive: 31.6 µM [inhibitor, single point] | 
COc1ccc(OC2C=CC(C#Cc3ccc(F)cc3F)OC2CO)cc1 (stereo not given) |  | inactive: -2.38% [at 11.4 µM] and inactive: -9.33% [at 11.4 µM]
COCCNC(=O)c1cc2c(-c3ccccc3F)nn(C)c2s1 | inconclusive: 31.6 µM [inhibitor, single point] | 
COC(=O)N1CCC[C@@]2(CCN(C(=O)Nc3ccccc3)C2)C1 |  | inactive: 4.44%
CCN1CCN(c2cc(C)c3cc(NC(=O)c4ccc5c(c4)OCO5)ccc3n2)CC1 | inconclusive: 31.6 µM [inhibitor, single point] | 
COc1ccc(C(C)=O)cc1CSc1nc2ccccc2o1 | inconclusive: 39.8 µM [inhibitor, single point] | 
COCCNC(=O)C(OC(=O)CC1Sc2ccccc2NC1=O)c1ccncc1 (stereo not given) | inconclusive: 39.8 µM [inhibitor, single point] | 
Cn1cc(C2=C(c3cn(CCCSC(=N)N)c4ccccc34)C(=O)NC2=O)c2ccccc21 | inconclusive: 39.8 µM [inhibitor, single point] | 
O=C(OCCNC(=O)c1cc2ccccc2oc1=O)c1cccnc1 | inconclusive: 20 µM [inhibitor, partial curve] | 
C=C(C)CSc1nc2c(cc1C#N)CCC2 |  | inactive: -9.54%
O=c1c(-c2ccccc2)c(O)c2cccc3c2n1CCC3 | inconclusive: 0.0063 µM [inhibitor, full curve, poor fit] | 

Structure (SMILES) | Potency | activity change, negative = inhibition
CCOC(=O)Cc1c(C)nc2c(-c3cccc(Br)c3)c[nH]n2c1=O | active: 25.1 µM | 
Brc1ccc(-c2nn3c(-c4ccncc4)nnc3s2)o1 | inconclusive: 39.8 µM [inhibitor, single point] | 
CCSc1nnc(Cc2cc(=O)[nH]c(=O)[nH]2)n1-c1ccc(F)cc1 | inconclusive: 3.98 µM [inhibitor, single point] | 
N#Cc1c(/N=C/c2ccco2)sc2c1CCCCC2 |  | inactive: -2.83%
CCOC(=O)CN=C1CC(C)(C)CC2=C1Sc1ncnc(N(C)C)c1N2 | inconclusive: 15.8 µM [inhibitor, partial curve] | 
COc1ccc(C(=S)N(C)C)cc1OC | active: 3.16 µM | 
Cc1cccc(C(=O)Nc2ccccc2C(=O)OCc2c(C)noc2C)c1 |  | inactive: -7.59%
Cc1ccccc1-c1ccc2ncnc(NCc3cccnc3)c2c1 | inconclusive: 25.1 µM [inhibitor, single point] | 
Cc1cc(C(=O)CSc2nnc(-c3cccs3)o2)c(C)n1-c1ccccc1 |  | inactive: 7.62%
Cc1csc(NC(=O)CSCC(=O)Nc2ccccc2)n1 | inconclusive: 39.8 µM [inhibitor, single point] | 
N#Cc1c(N)nc(SC2CCCCC2=O)c(C#N)c1-c1ccco1 (stereo not given) | inconclusive: 39.8 µM [inhibitor, single point] | 
Cn1c(=O)[nH]c(=O)c2c1nc(SCC(=O)O)n2CCc1ccccc1 | inconclusive: 0.794 µM [inhibitor, full curve] | 
Nc1ccc(-c2nc3c(Cl)cc(N)cc3[nH]2)cc1 | active: 31.6 µM | 
COCCNC(=O)C(c1cccc(OC)c1)N(C(=O)Cn1nnc2ccccc21)c1cccnc1 (stereo not given) | inconclusive: 6.31 µM [inhibitor, single point] | 
CCOC(=O)C1CCN(C(=O)c2cn(CCOC)c(=O)c3c2c2ccccc2n3C)CC1 | active: 25.1 µM | 
CC(C)C1N(C(=O)CN2CCCC2)CCN1S(=O)(=O)c1ccccc1 (stereo not given) |  | inactive: 1.17%
N#Cc1cc2c(nc1SCC(=O)Nc1nccs1)CCCCC2 | inconclusive: 3.98 µM [inhibitor, single point] | 
C[N+](C)(C)CCC(=O)c1cccc2ccccc12 | active: 0.794 µM | 
C#CCCCCCCCCCCCCCCCC(=O)O |  | inactive: -6.22%
COc1ccc(OC)c(-c2nc3c(C)n[nH]c(=O)c3[nH]2)c1 | inconclusive: 39.8 µM [inhibitor, single point] | 
COc1ccc(Oc2ncc3nc(CCc4ccccc4)c(=O)n(C4CC4)c3n2)cc1 |  | inactive: -2.53%
Fc1ccc2[nH]c3c(N4CCN(c5ccccc5)CC4)ncnc3c2c1 | inconclusive: 39.8 µM [inhibitor, single point] | 
CCc1nc(N)c(C#N)c(-c2ccncc2)c1C | active: 25.1 µM | 
CC(=O)N1CCC(C(=O)Nc2nc(-c3ccccc3)ns2)CC1 | inconclusive: 39.8 µM [inhibitor, single point] | 
COc1ccc2[nH]c(=O)c(CN(C(=O)c3ccccn3)C3CCCCC3)cc2c1 | inconclusive: 39.8 µM [inhibitor, single point] | 
